Test results published in PubChem BioAssay (NCI).
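Grown in 96-well plates, cells were treated for 48 hours with each compound at five concentrations. Insufficient inhibition: endpoint recorded as highest concentration tested. GI50: concentration for 50% inhibition of growth.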 The source holds more than one record for some entries. This is not the full list of results. There may be further records. Records of one sample usually come from different ranges of test concentrations, not given here; some values may only mark the edge of a range.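 Definition used: TGI = concentration required for complete inhibition of growth.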

System: MDA-MB-468 breast
Experiment: growth of human tumour cells (NCI), 48 h

Q: For COC(=O)C12CC(NC(=O)c3csc([C@@H](C[C@H](C(C)C)N(C)C(=O)[C@@H](NC(=O)[C@H]4CCCCN4C)C(C)C)OC(C)=O)n3)(C1)C2, which GI50 is on record?
A: The GI50 was 0.226 nM and 3.33 nM.

Q: What about the TGI of the same compound?
A: Its TGI is 0.862 nM and > 33.3 µM.
